The results in this text go back to the antibiotic and cytotoxicity screens of Wong et al. (2023).

The other results are listed elsewhere or left out.

One assay concerns HepG2. The assay can be described thus: cytotoxicity call (relative viability < 0.9). The settings on record: 10 µM.
For the compound `COc1ccc(S(=O)(=O)Nc2ccc3c(c2)C(=O)N([C@H](C)CO)C[C@H](C)[C@H](CN(C)Cc2ccc(-c4ccccc4)cc2)O3)cc1`, the cytotoxicity call was “inactive”.

In the case of `COc1nc(C)nc(Cl)c1NC1=NCCN1`, the cytotoxicity call was “inactive”.

With `O=C(Nc1ccc2ccccc2c1)c1ccc(Cl)cc1Cl`, the cytotoxicity call is “inactive”.

For `C[C@H](CO)N1C[C@H](C)[C@H](CN(C)CC2CCCCC2)Oc2ccc(NC(=O)Nc3ccc(F)cc3)cc2CC1=O`, the cytotoxicity call is “active”.

As for `C[C@@H]1CN([C@H](C)CO)C(=O)c2cc(NC(=O)Nc3cccc4ccccc34)ccc2O[C@H]1CN(C)C(=O)Nc1cccc2ccccc12`, the cytotoxicity call was “inactive”.

For `CS(=O)(=O)Nc1ccc2c(c1)C(=O)NC2=O`, the cytotoxicity call was “inactive”.

As to `NCc1nncn1-c1ccc(F)cc1`, the cytotoxicity call is “inactive”.

Regarding `CNC(=O)c1cnc2n1CCN(Cc1nccn1C)C2`, the cytotoxicity call was “inactive”.

As to `COc1cccc(C#Cc2ccc3c(c2)O[C@@H](CN(C)C(=O)c2ccccn2)[C@@H](C)CN([C@H](C)CO)S3(=O)=O)c1`, the cytotoxicity call was “inactive”.

With `CC[C@@H]1OC[C@@H]2CN(C(=O)CN(C)C)CC[C@H]21`, the cytotoxicity call is “inactive”.

Regarding `C[C@@H]1CN([C@@H](C)CO)C(=O)Cc2cc(NS(=O)(=O)c3ccc(Cl)cc3)ccc2O[C@@H]1CN(C)C`, the cytotoxicity call is “inactive”.

With `CCNC(=O)C[C@H]1CC[C@H]2[C@H](COc3ccc(NS(=O)(=O)c4ccccc4C)cc3C(=O)N2C)O1`, the cytotoxicity call was “inactive”.

As for `C[C@H]1CN([C@@H](C)CO)C(=O)c2cccc(NC(=O)c3cnccn3)c2O[C@H]1CN(C)C(=O)Nc1ccc2c(c1)OCO2`, the cytotoxicity call is “inactive”.

Consider `COC(=O)[C@@H]1CC(=O)O[C@H](C)C/C=C/C=C/[C@H](O)[C@H](C)C[C@H](CC=O)[C@H](O[C@H]2O[C@H](C)[C@@H](O[C@H]3C[C@@](C)(O)[C@@H](OC(=O)CC(C)C)[C@H](C)O3)[C@H](N(C)C)[C@H]2O)[C@H]1OC`, for which the cytotoxicity call is “inactive”.

As for `O=C(C[C@@H]1C=C[C@H](NC(=O)c2ccc(F)cc2)[C@H](CO)O1)NCc1ccncn1`, the cytotoxicity call was “inactive”.

As to `C[C@@H]1CN([C@H](C)CO)C(=O)c2cc(NC(=O)Nc3ccccc3)ccc2O[C@@H]1CN(C)C(=O)Nc1cccc2ccccc12`, the cytotoxicity call is “inactive”.

As for `COCCN1CCNCC1`, the cytotoxicity call was “inactive”.

Another assay has as its system S. aureus RN4220. The assay can be described thus: growth inhibition call (relative growth <= 0.2). The settings on record: 50 µM.
Consider `CCCCOc1ccc([C@@H]2c3c(oc4ccc(Br)cc4c3=O)C(=O)N2CCCN2CCOCC2)cc1`, for which the growth inhibition call was “inactive”.

With `CC1=CC(=O)[N-]S(=O)(=O)O1.[K+]`, the growth inhibition call was “inactive”.

`C[C@H]1CN([C@@H](C)CO)C(=O)c2cc(NC(=O)CCN3CCOCC3)ccc2O[C@H]1CN(C)Cc1ccncc1`: the growth inhibition call was “inactive”.

Take `Cc1cc(C)n(-c2n[nH]c(=S)n2N)n1`: the growth inhibition call is “inactive”.

In the case of `C[C@@H]1CN([C@H](C)CO)C(=O)c2cccc(NC(=O)c3cnccn3)c2O[C@H]1CN(C)S(=O)(=O)c1cccs1`, the growth inhibition call is “inactive”.

On to `CC(C)NC(=O)N(C)C[C@H]1Oc2ccc(NC(=O)Nc3ccc4c(c3)OCO4)cc2C(=O)N([C@H](C)CO)C[C@H]1C`, for which the growth inhibition call is “inactive”.

`C[C@@H]1CCCCO[C@H](CN(C)Cc2ccc(C(F)(F)F)cc2)[C@H](C)CN([C@H](C)CO)C(=O)c2cc(NS(=O)(=O)c3cccs3)ccc2O1`: the growth inhibition call is “inactive”.

For `Cn1cncc1[C@@](N)(c1ccc(Cl)cc1)c1ccc2c(c1)c(-c1cccc(Cl)c1)cc(=O)n2C`, the growth inhibition call was “active”.

Consider `C[C@@H]1CN([C@@H](C)CO)C(=O)Cc2cc(NC(=O)Cc3ccccc3)ccc2O[C@@H]1CN(C)Cc1ccc(Oc2ccccc2)cc1`, for which the growth inhibition call is “inactive”.

On to `C[C@H]1CN([C@@H](C)CO)C(=O)CCCn2cc(nn2)CO[C@@H]1CN(C)S(=O)(=O)c1ccc2ccccc2c1`, for which the growth inhibition call is “inactive”.

Regarding `Cc1ccc(-c2ccc3c(c2)O[C@@H](CN(C)Cc2cncnc2)[C@H](C)CN([C@@H](C)CO)S3(=O)=O)cc1`, the growth inhibition call is “inactive”.

`C[C@H](CO)N1C[C@H](C)[C@H](CN(C)Cc2ccc(C(F)(F)F)cc2)Oc2ccc(NC(=O)Nc3ccc(F)cc3)cc2C1=O`: the growth inhibition call was “inactive”.

On to `C[C@@H]1CN([C@@H](C)CO)C(=O)c2cc(NS(=O)(=O)c3cccs3)ccc2O[C@H]1CN(C)S(=O)(=O)c1cccs1`, for which the growth inhibition call is “inactive”.

Consider `C[C@H](CO)N1C[C@H](C)[C@@H](CN(C)C(=O)Nc2ccc(F)cc2)OCCCC[C@H](C)Oc2ccc(NC(=O)CCC(F)(F)F)cc2C1=O`, for which the growth inhibition call is “inactive”.

Take `C[C@@H]1CN([C@@H](C)CO)C(=O)c2cc(NC(=O)Nc3ccc(F)cc3)ccc2O[C@@H](C)CCCCO[C@H]1CN(C)C(=O)c1ccccc1`: the growth inhibition call is “inactive”.

Turning to `O=C(C[C@H]1C[C@H]2c3cc(NC(=O)Nc4ccc(C(F)(F)F)cc4)ccc3O[C@H]2[C@H](CO)O1)NCc1cc(F)ccc1F`, the growth inhibition call is “inactive”.
